Screen size: about 150,000 compounds; about 540 (0.36%) showed an effect of 50% or more. This is one part of the list.

This experiment deals with Plasmodium falciparum. In words: Primary screen in NF54 nanoGlo assay, in single point, at 2uM, 72h; a lower Z score goes with more inhibition. The format is functional, Erythrocyte. Conditions: timepoint 72 hour.
As usually defined, the % Inhibition is the relative decrease from the control value, in per cent. Take `Cc1ccc2c(NC(=O)NC[C@H]3CCOC3)cccc2n1`: the “% Inhibition” value is 15% and the Z score is on record as -2.12.
`Cc1sc(-c2ccn[nH]2)cc1NC(=O)c1n[nH]c2ccccc12`: the “% Inhibition” value is listed as 7% and the Z score is -0.7.
In the case of `CCc1nnc2ccc(N3CCN(C)C(=O)C3)nn12`, the “% Inhibition” value is given as 3% and the Z score is on record as -0.4.
In the case of `COCCNC(=O)C(O)C(C)c1ccc(C)cc1` (stereo not given), the “% Inhibition” value is -15% and the Z score is reported as 1.73.
In the same order, the values of `COc1ccc(N2CCN(C(=O)Cn3ccc4ccc(N5CCOCC5)nc43)CC2)cc1` are -3% and 0.45.
The like results for `CNS(=O)(=O)C[C@H]1CCCN1c1nc(C)cnc1C` were, in that order, -7% and 1.37.
For `N#Cc1ccc(CC(C#N)(Cc2ccc(C#N)cc2)C(=O)Nc2ccc(F)cc2F)cc1`, the “% Inhibition” value is -9% and the Z score came out at 1.69.
Turning to `CC(CC1CCCN1C(=O)OC(C)(C)C)N[C@H]1CC[C@H](O)CC1` (stereo not given in full), the “% Inhibition” value is on record as -7% and the Z score is 0.92.
With `Cc1nc(-c2cccnc2)nc(NCCNC(=O)N(C)C)c1C`, the “% Inhibition” value is -8% and the Z score was 0.86.
As to `O=C(N[C@H]1CN(C(CO)CO)C[C@@H]1C1CC1)c1ccsc1`, the “% Inhibition” value is listed as -10% and the Z score was 1.67.
In the same order, the values of `Cc1nc(N2CCOCC2)nc(C)c1NC(=O)CC(C)C` are -8% and 1.18.
In the case of `c1cncc(-c2nc3c(cnn3Cc3cccs3)[nH]2)c1`, the “% Inhibition” value is given as -3% and the Z score amounted to 0.24.
In the case of `C=CCn1ncc(-c2cn([C@@H](CC)c3cc(C)ccn3)nn2)c1C`, the “% Inhibition” value came out at 10% and the Z score was -1.39.
Regarding `O=C(CCc1ccncn1)NCCOCc1ccc(Cl)cc1Cl`, the “% Inhibition” value came to 1% and the Z score is listed as -0.12.
Regarding `Cc1c(C2Nc3ccccc3C(=O)N2CC2CCCO2)cc(C#N)n1C` (stereo not given), the “% Inhibition” value was -15% and the Z score was 1.99.
The like results for `CCS(=O)(=O)Cc1nc2c([nH]1)C[C@H](c1ccc(F)cc1)CNC2=O` were, in that order, 2% and -0.32.
On to `CCC1CCC(C(=O)N(Cc2cccc(OC)n2)CC2(C)COC2)O1` (stereo not given), for which the “% Inhibition” value is recorded as -12% and the Z score amounted to 1.66.
In the case of `Cc1cc(S(=O)(=O)N2CCc3oncc3C2)ccc1F`, the “% Inhibition” value is -4% and the Z score turned out to be 0.65.
In the same order, the values of `COC[C@H]1[C@H](Nc2ncc(F)c(N(C)C)n2)[C@H]2CCO[C@H]21` are -4% and 0.6.
Turning to `CN(C(=O)NCc1ccco1)[C@@H](CO)C(C)(C)C`, the “% Inhibition” value is listed as -22% and the Z score was determined as 2.5.
As to `COC1([C@H](C)NCc2scnc2C)CCCC1`, the “% Inhibition” value is given as -10% and the Z score was determined as 1.18.
Take `CCCc1nc(C(=O)N2CC[C@@H](CO)[C@@H](O)C2)cs1`: the “% Inhibition” value is listed as -1% and the Z score was 0.16.
In the case of `CCn1cc(CN(C)Cc2ccccc2)ccc1=O`, the “% Inhibition” value is -16% and the Z score was found to be 1.74.
The like results for `COc1ccccc1[C@H](NC(=O)Nc1cnn(C)c1)c1ccccn1` were, in that order, -11% and 1.33.
`COc1cccc(C2(F)CCN(C(=O)[C@H](CO)NC(=O)C(C)C)CC2)c1`: the “% Inhibition” value is reported as -38% and the Z score turned out to be 4.51.
Regarding `CCCCCNC(=O)C[C@H](c1cccc(OCc2ccccc2)c1)c1c[nH]c2ccccc12`, the “% Inhibition” value amounted to 0% and the Z score is recorded as -0.01.
Consider `Cc1cnc(CN(C)Cc2ccnc(C)c2)cn1`, for which the “% Inhibition” value is -13% and the Z score was found to be 2.38.
With `Cc1n[nH]c(C)c1-c1ccc(CS(C)(=O)=O)cn1`, the “% Inhibition” value was -7% and the Z score is 0.61.
Regarding `CNC(=O)NC(=O)CN(Cc1cccnc1)C[C@H]1CCCO1`, the “% Inhibition” value was found to be 11% and the Z score was -1.34.
Turning to `O=S1(=O)CCCN1Cc1cc(Cl)c2c(c1)OCCO2`, the “% Inhibition” value was found to be 29% and the Z score is -3.9.
On to `CN(CCCCN1CCOCC1)C(=O)c1cnc(N)s1`, for which the “% Inhibition” value worked out at 1% and the Z score was -0.15.
As for `CCn1cnnc1CNC(=O)N1C2CCC1CC(O)(Cc1ccc(F)cc1F)C2` (stereo not given), the “% Inhibition” value is recorded as -9% and the Z score is 1.63.
Regarding `CCC(=O)N(CC(=O)N1CCc2sccc2C1COc1ccc(C(C)C)cc1)CC1CCCO1` (stereo not given), the “% Inhibition” value was 1% and the Z score was -0.23.
The like results for `Cc1cc(CN(C)S(=O)(=O)Cc2ccccc2)no1` were, in that order, -10% and 1.68.
In the case of `O=C(NCCc1nccs1)c1ncn[nH]1`, the “% Inhibition” value was -1% and the Z score was 0.11.
As to `CCOc1ncccc1C(=O)NCc1nc(-c2ccc[nH]c2=O)no1`, the “% Inhibition” value is reported as -12% and the Z score was found to be 1.99.
Turning to `CC(c1ccccc1)n1cc(NC(=O)[C@H]2CCN(C)[C@@H](C)C2)cn1` (stereo not given in full), the “% Inhibition” value is on record as -6% and the Z score is recorded as 1.13.
The like results for `CO[C@H](c1ccc2c(c1)CN(C(=O)c1scc3c1OCCO3)CCO2)C1CCCCC1` were, in that order, -7% and 1.32.
`COc1ccc(OC)c(-c2cc(C(=O)NCC[C@H](O)c3cccn3C)n(C)n2)c1`: the “% Inhibition” value is 5% and the Z score is given as -0.56.
For the molecule `O=C(CCc1ccsc1)Nc1ccc2c(c1)OC1(CCCCC1)O2`, the “% Inhibition” value is on record as -8% and the Z score was 0.9.
Regarding `N#Cc1ccc(-n2cccc2-c2c(C#N)c(N)nc3c2CNCC3)cc1`, the “% Inhibition” value is on record as -16% and the Z score came to 1.63.
With `Nc1nc(NCc2ccc(O)cc2)cc(C2CC(O)C2)n1` (stereo not given), the “% Inhibition” value was 2% and the Z score is reported as -0.38.
Consider `Cc1cn2cc(C(=O)N3CC=C(c4ccnn4C)CC3)sc2n1`, for which the “% Inhibition” value is -2% and the Z score was found to be 0.27.
The like results for `COc1c(C)cc(C(=O)N2CCC3(CC2)NCCNC3=O)cc1C` were, in that order, -11% and 1.63.
As for `O=C1N(CN2CCN(c3ccccc3F)CC2)c2ccccc2C12OCCCCO2`, the “% Inhibition” value is -4% and the Z score is recorded as 0.56.
The like results for `Cc1c(CN[C@H]2CCCc3c2cnn3-c2ccccn2)[nH]c2c(Cl)cccc12` were, in that order, 15% and -1.94.
Take `CCc1nc(CN2C(=O)COc3cc(S(=O)(=O)Nc4ccc(C#N)cc4)c(C)cc32)no1`: the “% Inhibition” value worked out at 0% and the Z score was -0.03.
For the molecule `CCc1ncc(-c2cc(C(=O)N3CCC(C)(C)C3)c3cc(C)ccc3n2)cn1`, the “% Inhibition” value is listed as 10% and the Z score was -1.32.
As for `CC(C)n1cc(NC(=O)N2CCN(CC(F)(F)F)C[C@H](C)C2)cn1`, the “% Inhibition” value is given as -1% and the Z score was found to be 0.13.
With `Cc1cc(NC(=O)NCC[C@H]2CCCO2)n(-c2ccc(C(F)(F)F)cn2)n1`, the “% Inhibition” value was found to be 4% and the Z score is given as -0.8.
With `C=CCN(Cc1cnc2c(-c3ccccc3)cnn2c1)[C@H]1CCS(=O)(=O)C1`, the “% Inhibition” value is given as -9% and the Z score turned out to be 1.31.
`C[N+]12CCCCC1C(OC(=O)C1(c3ccccc3)CCCC1)CCC2` (stereo not given): the “% Inhibition” value came to 63% and the Z score is given as -6.6.
As to `CN1C[C@@H](NC(=O)NCc2ccc(OC(F)F)cc2F)CC1=O`, the “% Inhibition” value came out at 1% and the Z score is -0.09.
The like results for `O=C(O)c1cccc(CN2CC[C@H](c3ccccc3)[C@H](CO)C2)c1` were, in that order, 16% and -1.98.
With `C[C@@]1(C(=O)NC2CCCCCC2)Cn2nc(-c3ccco3)cc2C(=O)N1Cc1cccc(Cl)c1`, the “% Inhibition” value is -6% and the Z score amounted to 1.07.
Regarding `CO[C@H]1CS(=O)(=O)C[C@@H]1NC1Cc2ccccc2C1`, the “% Inhibition” value is on record as -8% and the Z score stood at 1.48.
As to `CN(CCn1ccc2ccccc21)Cc1cnc(N)nc1`, the “% Inhibition” value is given as -12% and the Z score is 2.09.
Turning to `Cn1ncc2c(N)nc(N3CCC(c4c[nH]c5ccccc45)CC3)nc21`, the “% Inhibition” value was -7% and the Z score was 0.73.
Regarding `Cn1cc2ncn(Cc3ccccn3)c(=O)c2n1`, the “% Inhibition” value is listed as 6% and the Z score is -1.19.
With `c1ccc(OCCN2CCN(c3ncccn3)CC2)cc1`, the “% Inhibition” value is given as -3% and the Z score is 0.27.
In the same order, the values of `Cc1cnc(C(=O)NC[C@H]2CCC3(CCOCC3)CO2)c(C)c1` are 4% and -0.54.
With `CC(C(=O)Nc1ccc(N2CCCCC2)cc1)N1CCCC(C(N)=O)C1` (stereo not given), the “% Inhibition” value was found to be 7% and the Z score is recorded as -0.82.
In the case of `COc1ccc(S(=O)(=O)N2CCC(O)(CN3CCCC3)CC2)cc1Cl`, the “% Inhibition” value turned out to be 1% and the Z score is listed as -0.24.
For `O=C(CN1CCOCC1=O)NCC1(C2CC2)CCC1`, the “% Inhibition” value is recorded as -13% and the Z score was found to be 1.68.
For the molecule `Cc1ccccc1C1CC(C)N(C(=O)c2ccc(CN)o2)C1` (stereo not given), the “% Inhibition” value came to 2% and the Z score was -0.26.
Take `CC(=O)Nc1cccc(COc2nc(Cc3ccc(F)cc3)no2)c1`: the “% Inhibition” value is recorded as -4% and the Z score was 0.5.
On to `COc1cc(C)ccc1OCc1nc(C(=O)NCc2nc(C)c(C)s2)co1`, for which the “% Inhibition” value is on record as -12% and the Z score is recorded as 1.54.
`O=C(c1scc2c1CCCC2)N1CCC(C(=O)O)(n2cccn2)CC1`: the “% Inhibition” value is -10% and the Z score turned out to be 1.04.
As to `COc1ccc(N2CCN(C(=O)c3csc(CN(CCc4ccc(OC)c(OC)c4)Cc4ccc(C)cc4)n3)CC2)cc1`, the “% Inhibition” value is reported as -8% and the Z score amounted to 0.77.
As to `c1ccc2c(-n3cnnc3CN3CCOCC3)cccc2c1`, the “% Inhibition” value is given as -3% and the Z score turned out to be 0.68.
Take `CCOC(=O)N1CC[C@@H](c2ccccc2F)S(=O)(=O)CC1`: the “% Inhibition” value is -12% and the Z score is reported as 2.01.
On to `Cn1cc(-c2cc(-c3cnn(C)c3)n(-c3ccc(Cl)c(Cl)c3)n2)cn1`, for which the “% Inhibition” value is 25% and the Z score is reported as -2.81.
In the same order, the values of `Cc1n[nH]c2c1CN(Cc1[nH]cc(C)c(=O)c1C)CC2` are -8% and 1.
As for `c1cc2c(cc1CN(Cc1nnc(C3CC3)o1)C1CCCC1)CCO2`, the “% Inhibition” value was -17% and the Z score came out at 2.6.
With `O=C(CC(F)(F)F)Nc1ccc(-n2cc[nH]c2=O)cc1`, the “% Inhibition” value worked out at 8% and the Z score is recorded as -1.06.
The like results for `COC1(CNc2nc(N)c3[nH]cnc3n2)CCOCC1` were, in that order, 0% and 0.02.
On to `O=C(NC1CCC(O)CC1)c1csc2c1CCCC2` (stereo not given), for which the “% Inhibition” value is recorded as -7% and the Z score came out at 1.
For `Cc1ccc(Cn2cc([C@H](CC(=O)NCCN3CCOCC3)c3cccc(C(F)(F)F)c3)c3ccccc32)cc1`, the “% Inhibition” value was -9% and the Z score is listed as 1.15.
In the same order, the values of `Cn1cc(CNc2ccc3c(c2)nnn3C)c(C(C)(C)C)n1` are -5% and 0.81.
The like results for `CC(C)Cn1c([C@H]2CCN(C(=O)Cc3ccsc3)C2)nc2ccncc21` were, in that order, 0% and 0.02.
As for `NC[C@H]1Cc2cc(F)cc(-c3cc(C(F)(F)F)cc4[nH]cnc34)c2O1`, the “% Inhibition” value is recorded as 14% and the Z score is given as -1.38.
Regarding `N#CC1=NN(c2ccc(Cl)cc2Cl)[C@H]2CCCCCN2C1=O`, the “% Inhibition” value was -8% and the Z score is on record as 1.17.
`COC(=O)CC[C@H](C)NCc1cccc(CO)c1`: the “% Inhibition” value was -16% and the Z score was 1.69.
As to `CCn1nc(C)cc1-c1nc2ccccn2n1`, the “% Inhibition” value is listed as -6% and the Z score is listed as 1.15.
In the same order, the values of `CCC(N)(CC)CNC(=O)Nc1cc(-c2ccoc2C)on1` are -2% and 0.4.

Source of the values: ChEMBL document CHEMBL4888484, “Replenishing the malaria drug discovery pipeline: Screening and hit evaluation of the MMV Hit Generation Library 1 (HGL1) against asexual blood stage Plasmodium falciparum ,using a nano luciferase reporter read-out” (2022).
